# The list shows a part of the results.
# Test system: PF3D7_0420300 AP2 domain 1 (GST-tagged)
# Assay: gcPBM binding intensity (ln(normalized median fluorescence intensity)); higher = stronger DNA binding
# How it was run: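 GST-tagged P. falciparum DNA-binding domains produced in E. coli were incubated for 1 h on an Agilent 4 × 180k array of primer-extended double-stranded 36-bp intergenic genomic probes with negative controls. Binding intensity is the highest Masliner-normalised natural-log median intensity across replicate spots of either probe orientation, with bound protein detected by Alexa488 anti-GST antibody at 488 nm.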
row,Sequence,gcPBM binding intensity (ln)
1,GTAATAAATTAAATATGTACATATTAAAATTAAGGA [XGTACX_site2290],9.16
2,ATTGATACATCCAATACACACTACAGATAATGATGT [CACACA_site5098],9.45
3,AATTTCTTCCATTGTAGTACTCAATTTTTTTTTGTT [XGTACX_site5847],9.69
4,GTGTAATATTATATATATATATATAATATATATACA [CACACA_negctrl_site263],9.11
5,AAAAAAAAAAAAATGGTGCAACTTTGTTAAAGGAAA [GTGCAC_site9950],9.22
6,ATTTAAAAGTTGGTAGTGCATTAAAAATAACAAAAA [GTGCAC_site9835],9.26
7,ATTAAATACATTAACACACACACAAATAAATACATA [CACACA_site5583],10.3
8,TTTTATTATTTGTCTTGTACTCATTGTAAGAGTATG [XGTACX_site1538],9.17
9,TACATACATACATACACACACACATCTATATTTATA [CACACA_site6171],10
10,GACAGATTATAGCATAGTACTCATACATACATACAT [XGTACX_site1252],9.38
11,TTTCAAAAATTATTTTGTACATATAATTAATATACG [XGTACX_site512],8.94
12,ATTAGGCATATTTTCTGTACACAATAATAAAAAAAA [XGTACX_site3957],9.04
13,TTCTCAAAGTTTACGTGTACATAAATTATATAAATG [XGTACX_site2622],9.03
14,TGTAATATGAAATGTGTACACACGCACCCACAAAAA [CACACA_site8948],9.77
15,AATGAATTTAATTCTACTATTTTTTTTTTAAATATT [XGTACX_negctrl_site296],8.95
16,TTCCCTTATTTTGTATGTACACAATTTATCATGTTG [XGTACX_site2896],9.65
17,ATATATATATATGCATGTACATATATTTGTTATATC [XGTACX_site3197],9.24
18,AATAGATATATAAATACACACAAACATACCTATATA [CACACA_site7823],10
19,AAACAAAGGGAACATGTGCACTTACAAAAAAAAAGA,9.48

row,Sequence,gcPBM binding intensity (ln)
1,TCACACCTTTTTGGTTGTACTTAAATTTCTTTTTTT [XGTACX_site6438],9.18
2,TATATATGGGTACTAATTCCTTTAATTTCTTTAATT [CACACA_negctrl_site949],9.25
3,AATTATATTCAAAATGGTACACACAATATTTAATTG [XGTACX_site5521],9.37
4,AAAAAAAAATTAGGGGTGCCATTTGCTGCTGTGCTT [GTGCAC_site9913],9.21
5,TTTTGTATTTCTCACACACACATAAGTAAACAATAA [CACACA_site5105],9.72
6,TAAACTATATTTACATGTACATATAATATTAAATAA [XGTACX_site3528],9.15
7,CCTATAAAACCATATACACACATATAAATAAAAAAA [CACACA_site7809],9.68
8,TATTACATTATTCAAAAAAATTTATATGGTTATAGG [CACACA_negctrl_site1657],8.92
9,TGATAATAAGCATACACACACACACCCAAAAAAAAA [CACACA_site721],10.2
10,TTTTTTTTTTCTTTTTTTCTCATGAAATTCTAAATG [CACACA_negctrl_site918],9
11,AAATAAAAAAAAAAAAAAAATAACTTAAATGGGATA [TGCATGCA_negctrl_site595],9.29
12,AACTAAATGTTATTCGCACACGGAATTTATTTAATG [CACACA_site3664],9.26
13,ATATATATATATATATATATATATATGATTATTACT [GTGCAC_negctrl_site109],9.13
14,ATTAATATGAATAAAACACACATATATAACTTGTAA [CACACA_site6989],9.54
15,AAAAATTTGGCATACACACACACACGCACACGCACA [CACACA_site6422],10.2
16,AATTATACTCACGTTACACACACACTATAAATATAT [CACACA_site7863],10.2
17,ATCTTATATTATCACACACACACGCACAAAACAGAA [CACACA_site1463],10.1
18,ATATTATATAGAAACACACATACACATGTAAATATA [CACACA_site2037],9.83
19,TTTATTAAACTTGACACACACACACCCACATATATA [CACACA_site760],10.2

row,Sequence,gcPBM binding intensity (ln)
1,ATGGATTTTACCATAGCACACATATATGAATATTTT [CACACA_site8535],9.34
2,TAATTATTTCGTATATTTGAATGGTACATGCTTATA [CACACA_negctrl_site1178],9.06
3,ATATAGAAAATGCATACACACTTTATATATATATTT [CACACA_site4658],9.42
4,AATGTGCTCGCTATTACACACTCATTGGGATAAAAT [CACACA_site8627],9.37
5,AGTAACAATTATTATGCATGTACAAATAATCATTTT [TGCATGCA_site867],9.27
6,TATATTTATATACCAACACACATACATATTTATATA [CACACA_site6931],9.61
7,AAAATTCAGCGAAAGGGTACATATGTGTAAGGGTAA [XGTACX_site8205],9.82
8,CTATTATATCAGTAGACACACATATAACATTTATAT [CACACA_site141],9.36
9,TATATTTTGTTTTTGTGTACATATTGGTAGTTATTT [XGTACX_site7659],9.66
10,TGATTATCCTATATATATTTCATAATGGAAAAAAAT [TGCATGCA_negctrl_site444],8.95
11,AATGTGGTATTTACAAAAAGGCTTTATACTTAAAAA [XGTACX_negctrl_site566],8.84
12,AAAAATAGTCTTCTTGCACTTTTTAATTTATTTTAA [CACACA_negctrl_site1322],8.86
13,CTTTTCATCTTCTTAACACACAAAAAAAAAAAAAAA [CACACA_site3886],8.92
14,AAGAAAATATAACAAAGTAAAAACATATTATATATA [TGCATGCA_negctrl_site248],9.31
15,TATATATATTTTTGAAGTACTTATTACACTAGCATT [XGTACX_site8965],9.21
16,TTGTTCTATAATTATACATGCATTAACAGAGTAAAA [TGCATGCA_site909],9.08
17,ATATATATATATATATGTACATATATTTTCTTTTTG [XGTACX_site6017],9.12
18,TTTTTTTTTTTTTAATGTACAAATATGGTGACAAAA [XGTACX_site8709],8.77
